Test results from article PMC4336329 (PLoS ONE, 2015).
About 2,200 (0.71%) of roughly 310,000 compounds showed an effect of 50% or more. Effects have a minus sign here. Some of the results follow.

molecular target: human ether-à-go-go-related gene (hERG) potassium channel (human, UniProt Q12809); assay: primary screen, population patch clamp on CHO cells stably expressing hERG
Sequence (Q12809 whole entry, looked up): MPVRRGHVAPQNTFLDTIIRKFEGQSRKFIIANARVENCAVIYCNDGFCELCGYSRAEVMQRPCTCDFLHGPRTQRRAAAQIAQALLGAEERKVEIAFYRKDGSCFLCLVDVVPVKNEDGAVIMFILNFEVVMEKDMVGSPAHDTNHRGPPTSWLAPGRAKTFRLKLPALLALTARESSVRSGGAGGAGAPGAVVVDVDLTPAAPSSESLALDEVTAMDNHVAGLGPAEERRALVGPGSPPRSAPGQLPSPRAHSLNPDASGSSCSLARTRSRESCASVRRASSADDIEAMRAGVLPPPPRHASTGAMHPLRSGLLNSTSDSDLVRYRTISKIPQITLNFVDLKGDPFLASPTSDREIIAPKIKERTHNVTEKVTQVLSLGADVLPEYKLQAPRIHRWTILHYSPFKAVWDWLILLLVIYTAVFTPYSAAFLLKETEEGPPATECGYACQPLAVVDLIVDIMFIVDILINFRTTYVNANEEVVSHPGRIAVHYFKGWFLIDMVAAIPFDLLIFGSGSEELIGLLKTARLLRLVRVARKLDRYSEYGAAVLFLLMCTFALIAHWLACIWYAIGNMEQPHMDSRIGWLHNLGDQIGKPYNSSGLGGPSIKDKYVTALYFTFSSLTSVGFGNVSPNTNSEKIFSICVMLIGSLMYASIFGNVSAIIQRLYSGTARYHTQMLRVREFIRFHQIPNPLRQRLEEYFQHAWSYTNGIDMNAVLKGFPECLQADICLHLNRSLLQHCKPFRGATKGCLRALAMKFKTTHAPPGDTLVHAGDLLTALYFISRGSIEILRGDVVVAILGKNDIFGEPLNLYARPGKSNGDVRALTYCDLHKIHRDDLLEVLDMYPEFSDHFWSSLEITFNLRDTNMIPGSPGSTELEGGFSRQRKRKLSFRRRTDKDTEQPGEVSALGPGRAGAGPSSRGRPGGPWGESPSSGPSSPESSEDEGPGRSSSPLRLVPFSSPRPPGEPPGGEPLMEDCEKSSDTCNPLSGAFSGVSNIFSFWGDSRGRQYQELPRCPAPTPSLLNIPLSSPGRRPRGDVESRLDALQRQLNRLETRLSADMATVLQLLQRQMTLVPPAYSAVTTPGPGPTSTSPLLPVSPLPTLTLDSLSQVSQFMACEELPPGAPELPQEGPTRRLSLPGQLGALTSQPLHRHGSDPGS

| SMILES | hERG current change (%, negative = inhibition) at 1uM [%] |
| --- | --- |
| O=C(COC(=O)CCc1nc2ccccc2c(=O)[nH]1)NC1CCS(=O)(=O)C1 (stereo not shown) | 5.63 |
| CCc1nnc(NC(=O)c2cc(-c3ccco3)nc3ccccc23)s1 | 10.4 |
| CC(=O)c1nn(-c2ccc(Br)cc2)cc1C(=O)c1ccco1 | 2.58 |
| Cc1ccc(OCCOC(=O)c2cc(S(=O)(=O)N3CCCCC3)ccc2N2CCOCC2)cc1 | 5.84 |
| CCSc1nnc([C@@H]2CCCN2C(=O)OC(C)(C)C)o1 | 11.9 |
| COc1ccc(/C=C2\SC(=O)N(CC(=O)NNC(=O)c3ccccc3O)C2=O)cc1 | 13.4 |
| CC(=O)Nc1ccc(S(=O)(=O)N2CCCC2)cc1 | 10.8 |
| CC(C)(C)C1CCc2c(sc(NC(=O)c3ccncc3)c2C(N)=O)C1 (stereo not shown) | 11.9 |
| Cc1ccc(-c2nc(C#N)c(N3CCC(C)CC3)o2)cc1 | 13.1 |
| O=C(COc1ccccc1)Nc1nnc(-c2ccc3c(c2)CCCC3)o1 | 13.8 |
| O=C(NCc1ccncc1)C(=O)N/N=C/c1ccccn1 | 11.5 |
| CC1(C)N(OCc2ccccc2)C(=O)C(=O)N(OCc2ccccc2)C1(C)C | -1.89 |
| Cc1cnc(SCc2cnc(C)nc2N)nc1 | 7.53 |
| CC(C)C(NC(=O)OCc1ccccc1)C(=O)OCC(=O)NCc1ccco1 (stereo not shown) | 19.6 |
| CCOC(=O)CNC(=O)/C=C/c1ccc2c(c1)OCO2 | 14.3 |
| Cc1nnc(-c2ccc(Oc3ccc(Br)cc3)c([N+](=O)[O-])c2)o1 | 10.1 |
| Oc1ccccc1-c1nnc(-c2ccc(C(F)(F)F)cc2)o1 | 11.6 |
| O=C(N/N=C/c1cc2c(cc1Cl)OCO2)c1cccc(Br)c1 | 10.5 |
| O=C(CSc1nc2ccccc2c(=O)n1CCCO)NCc1ccccc1 | -4.26 |
| Cc1ccc(OCC(O)CNC(C)c2ccccc2)cc1C.Cl (stereo not shown) | 10.4 |
| CC1(C)Cc2c(sc3nnn(Cc4ccc(Cl)cc4)c(=O)c23)CO1 | 18.7 |
| Cc1cc(C)cc(OCCCn2ccnc2)c1 | 21 |
| CCOc1ccc2[nH]c3c(NCC(C)C)ncnc3c2c1 | 7.21 |
| CCOC(=O)c1[nH]c2ccccc2c1NC(=S)Nc1ccccc1C | 2.56 |
| O=C(c1ccc(F)c(S(=O)(=O)N2CCOCC2)c1)N(c1ccccc1)c1ccccn1 | 4.63 |
